In patent US20110104152A1 (Genentech, published 2011):

Key:
[1] = molecular target: human FGFR1c polypeptide expressed in transfected rat L6 myoblasts (human, UniProt P11362 22-822); assay: cell-based or functional assay
[2] = molecular target: human FGFR4 polypeptide expressed in transfected rat L6 myoblasts (human, UniProt P22455 22-802); assay: cell-based or functional assay
Sequence of UniProt P22455 (P22455 22-802): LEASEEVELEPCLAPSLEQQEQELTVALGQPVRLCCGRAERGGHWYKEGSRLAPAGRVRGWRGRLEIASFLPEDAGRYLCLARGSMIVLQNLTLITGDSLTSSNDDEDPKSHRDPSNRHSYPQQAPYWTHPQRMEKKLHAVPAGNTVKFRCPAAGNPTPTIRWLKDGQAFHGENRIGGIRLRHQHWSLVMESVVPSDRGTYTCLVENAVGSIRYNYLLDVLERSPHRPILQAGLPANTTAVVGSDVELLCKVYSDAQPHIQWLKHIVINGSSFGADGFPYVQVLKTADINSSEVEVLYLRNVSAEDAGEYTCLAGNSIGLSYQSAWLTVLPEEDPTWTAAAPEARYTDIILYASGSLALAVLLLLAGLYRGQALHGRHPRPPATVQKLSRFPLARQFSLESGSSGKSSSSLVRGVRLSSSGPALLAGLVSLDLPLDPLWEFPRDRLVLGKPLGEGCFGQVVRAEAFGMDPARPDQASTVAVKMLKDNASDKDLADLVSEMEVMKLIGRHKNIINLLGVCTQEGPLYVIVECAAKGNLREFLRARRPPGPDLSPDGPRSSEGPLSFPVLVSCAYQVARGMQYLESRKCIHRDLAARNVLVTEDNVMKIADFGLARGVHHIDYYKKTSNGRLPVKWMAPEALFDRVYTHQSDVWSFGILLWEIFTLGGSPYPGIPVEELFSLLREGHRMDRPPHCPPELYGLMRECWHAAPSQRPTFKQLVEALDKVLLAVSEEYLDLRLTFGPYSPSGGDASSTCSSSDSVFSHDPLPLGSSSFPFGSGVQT

Sequence of UniProt P11362 (P11362 22-822): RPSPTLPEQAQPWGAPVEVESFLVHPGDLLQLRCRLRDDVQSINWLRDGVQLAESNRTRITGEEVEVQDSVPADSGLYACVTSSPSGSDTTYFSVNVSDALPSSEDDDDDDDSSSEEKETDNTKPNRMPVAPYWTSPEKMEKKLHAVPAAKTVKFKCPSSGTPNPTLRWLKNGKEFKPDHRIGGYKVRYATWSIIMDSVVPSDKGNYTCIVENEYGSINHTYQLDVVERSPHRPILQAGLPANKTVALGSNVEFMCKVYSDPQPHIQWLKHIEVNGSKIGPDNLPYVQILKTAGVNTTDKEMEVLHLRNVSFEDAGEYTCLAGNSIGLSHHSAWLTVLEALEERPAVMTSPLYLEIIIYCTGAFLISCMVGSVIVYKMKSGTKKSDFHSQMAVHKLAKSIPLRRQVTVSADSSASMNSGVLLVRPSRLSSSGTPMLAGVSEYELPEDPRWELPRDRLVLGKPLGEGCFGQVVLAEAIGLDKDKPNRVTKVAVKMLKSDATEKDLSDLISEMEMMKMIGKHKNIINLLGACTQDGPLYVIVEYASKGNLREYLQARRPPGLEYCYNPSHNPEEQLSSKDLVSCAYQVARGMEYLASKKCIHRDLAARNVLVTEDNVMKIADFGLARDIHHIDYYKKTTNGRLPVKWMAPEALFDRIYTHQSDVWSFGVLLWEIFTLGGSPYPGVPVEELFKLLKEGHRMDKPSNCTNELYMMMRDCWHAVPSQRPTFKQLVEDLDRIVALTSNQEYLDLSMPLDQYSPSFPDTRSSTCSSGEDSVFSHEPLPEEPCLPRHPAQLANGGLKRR

EC50 of dose-dependent activation of luciferase (GAL4-Elk1 reporter), L6 cells with KLB and FGFR1c [1]: 34.3 ng/mL
EC50 of dose-dependent activation of luciferase (GAL4-Elk1 reporter), L6 cells with FGFR4 and KLB [2]: 2.6 ng/mL
B1: native human FGF19-Flag polypeptide (ligand)
chain: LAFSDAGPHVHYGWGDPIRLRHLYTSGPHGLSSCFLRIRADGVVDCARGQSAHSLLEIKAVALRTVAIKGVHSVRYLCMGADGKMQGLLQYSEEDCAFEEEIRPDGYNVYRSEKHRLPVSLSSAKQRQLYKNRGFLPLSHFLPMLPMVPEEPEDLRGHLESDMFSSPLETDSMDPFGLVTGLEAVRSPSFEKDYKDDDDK
